{"source": "PubChem BioAssay AID504466", "about": "(National Center for Advancing Translational Sciences (NCATS), 2011)", "note": "Among all 330,000 compounds or so, about 4,200 (1.3%) were called active. Inconclusive results, whose numbers are uncertain, are shown with a selection of clear calls. Calls come from the whole dose curve; as a rule, active = well fitted activation curve with a large enough effect; inconclusive = small, poorly fitted or top-dose-only effect; inactive = no such curve, though single readings can be large or run the other way. Where the call is inconclusive, the potency comes from a doubtful curve fit. Potency is the fitted concentration of half-maximal effect; tags give direction and shape of the fitted curve.", "data": [{"assay": "qHTS screen for small molecules that induce genotoxicity in human embryonic kidney (HEK293T) cells expressing luciferase-tagged ELG1; note: nearly all actives have a fitted effect of over 60% in size; for activity change, positive = activation: % of control where 0% means no effect", "settings": "HEK293T ELG1-luciferase reporter, luminescence, 16 h; series mostly up to 46 µM; activity change, positive = activation: at the top concentration", "in_short": "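Screening used a luciferase reporter fused to human ELG1 in HEK293T cells. Luminescence was read on a CCD plate imager after 16 hr exposure and 30 min ONE-Glo incubation.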", "values": [{"smiles": "CCN(CCCNC(=O)c1nn(C)c2c1CS(=O)(=O)c1ccccc1-2)Cc1ccccc1", "activity change, positive = activation": "inactive: -0.556%"}, {"smiles": "O=c1ccc2[n+]([O-])c3ccc(O)cc3oc-2c1", "activity change, positive = activation": "inactive: -9.71%"}, {"smiles": "O=C(Nc1ccccc1F)c1ccc(OCc2ccccc2)cc1", "Potency": "inconclusive: 20.6 µM [activator, partial curve, poor fit]"}, {"smiles": "COc1cccc(OCC(=O)Nc2ccccc2C(N)=O)c1", "Potency": "active: 5.17 µM"}, {"smiles": "S=C(Nc1ccc2c(c1)OCO2)N1CCCC1", "Potency": "inconclusive: 20.6 µM [activator, partial curve, poor fit]"}, {"smiles": "COc1ccc2oc(C(=O)OCC(=O)NC3CCCCC3)c(C)c2c1", "Potency": "inconclusive: 20.6 µM [activator, partial curve, poor fit]"}, {"smiles": "COc1cc(Cl)cc(/C=C/c2ccc3ccccc3n2)c1OC(C)=O", "Potency": "inconclusive: 2.06 µM [activator, full curve]"}, {"smiles": "CCCCSc1nc(C)nc2c1c(=O)n(C)c(=O)n2C", "Potency": "inconclusive: 29.1 µM [activator, single point]"}, {"smiles": "CC(NC(=O)CSc1n[nH]c(N)n1)c1ccccc1", "note": "(stereo unspecified)", "activity change, positive = activation": "inactive: 4.09%"}, {"smiles": "O=C(c1ccc(Cn2cnnn2)cc1)N1CCCC(Nc2ccc(F)c(F)c2)C1", "note": "(stereo unspecified)", "activity change, positive = activation": "inactive: -5.16%"}, {"smiles": "COc1ccc(NC(=O)C2C3CC/C=C\\CCC32)cc1", "note": "(stereo unspecified)", "Potency": "inconclusive: 20.6 µM [activator, partial curve, poor fit]"}, {"smiles": "Cn1cccc1C(=O)C(=O)Nc1cccc(Cl)c1Cl", "Potency": "inconclusive: 9.2 µM [activator, partial curve]"}, {"smiles": "Cn1c(C(=O)NCc2cccnc2)cc2sc(Cl)cc21", "activity change, positive = activation": "inactive: -0.321%"}, {"smiles": "O=C(/C=C/c1ccccc1)c1ccc2c(c1)OCO2", "Potency": "inconclusive: 16.4 µM [activator, single point]"}, {"smiles": "CCCNC(=O)c1c(N)n(-c2ccc3c(c2)OCO3)c2nc3ccccc3nc12", "Potency": "inconclusive: 29.1 µM [activator, partial curve, poor fit]"}, {"smiles": "OCCN(Cc1ccccc1)CC(O)COc1ccc2c(c1)OCO2", "note": "(stereo unspecified)", "activity change, positive = activation": "inactive: -0.34%"}, {"smiles": "CC(Cc1ccccn1)NC(=O)c1ccc(OC2CCN(CCc3ccccc3)CC2)cc1", "note": "(stereo unspecified)", "Potency": "inconclusive: 20.6 µM [activator, partial curve, poor fit]"}, {"smiles": "Cc1ccccc1-n1c(C)nnc1SC(C)C(=O)NCC1CCCO1", "note": "(stereo unspecified)", "activity change, positive = activation": "inactive: -0.117%"}, {"smiles": "Cc1noc(C(=O)Nc2sc3c(c2C#N)CCC3)c1Cl", "activity change, positive = activation": "inactive: 2.03%"}, {"smiles": "CC1(C)Cc2c(c(N3CCCC3)nc3sc(C(=O)Nc4ccccc4)c(N)c23)CO1", "Potency": "inconclusive: 20.6 µM [activator, partial curve]"}, {"smiles": "COc1ccc(C(=O)Nc2ccc(-c3n[nH]c(=S)o3)cc2)cc1", "Potency": "inconclusive: 16.4 µM [activator, partial curve, poor fit]"}, {"smiles": "O=C(Nc1ccc(NC(=O)C2CC2)nc1)c1ccccc1F", "Potency": "inconclusive: 14.6 µM [activator, single point]"}, {"smiles": "COc1ccc(-c2cn3cc(C)ccc3n2)cc1OC", "Potency": "active: 1.03 µM"}, {"smiles": "CC(/C=N/NC(=O)c1ccco1)=C\\c1ccccc1", "Potency": "active: 2.31 µM"}, {"smiles": "O=C(Nc1ccc2oc(-c3ccccc3)nc2c1)c1cccs1", "Potency": "inconclusive: 9.2 µM [activator, partial curve]"}, {"smiles": "COc1ncccc1-c1nnn(-c2ccc(F)cc2)n1", "Potency": "active: 9.2 µM"}, {"smiles": "Brc1ccc(Nc2nc(-c3cccnc3)cs2)cc1", "Potency": "inconclusive: 10.3 µM [activator, partial curve, poor fit]"}, {"smiles": "Cn1c(=O)n(C)c2cc(NS(=O)(=O)c3cccs3)ccc21", "Potency": "inconclusive: 20.6 µM [activator, partial curve]"}, {"smiles": "CCc1ccc(N=C2NC(=O)/C(=C/c3cc(Br)c(OCC(=O)O)c(OC)c3)S2)cc1", "activity change, positive = activation": "inactive: 1.85%"}, {"smiles": "COc1cc(CNC(=O)c2ccc(Cn3nc(C)c(Cl)c3C)o2)cc(OC)c1", "activity change, positive = activation": "inactive: -12.3%"}, {"smiles": "O=C1/C(=C/C=C/c2ccco2)SC(=S)N1NS(=O)(=O)c1ccccc1", "activity change, positive = activation": "inactive: -3.49%"}, {"smiles": "O=C(NCc1ccco1)c1ccc2c(c1)C(=O)c1ccccc1-2", "Potency": "active: 14.6 µM"}, {"smiles": "Sc1oc(-c2ccccc2)cc1C=Nc1ccccc1", "Potency": "active: 11.6 µM"}, {"smiles": "CCc1sc(C(=O)Nc2nccs2)cc1C", "Potency": "inconclusive: 1.64 µM [activator, full curve]"}, {"smiles": "O=C(Nc1cccnc1)c1ccc(-c2ccccc2)cc1", "Potency": "inconclusive: 2.59 µM [activator, full curve]"}, {"smiles": "CCn1nnc(NC(=O)c2ccccc2Br)n1", "Potency": "inconclusive: 20.6 µM [activator, partial curve]"}, {"smiles": "Cc1ccc(NC(=O)CCSc2ccccc2)c(C)c1", "Potency": "inconclusive: 23.1 µM [activator, partial curve, poor fit]"}, {"smiles": "CCc1c(C(=O)OCc2ccccc2)[nH]c(C)c1C", "Potency": "inconclusive: 23.1 µM [activator, partial curve, poor fit]"}, {"smiles": "NC(N)=Nc1nc2cc([N+](=O)[O-])ccc2o1", "activity change, positive = activation": "inactive: 10.2%"}, {"smiles": "C=CCNC(=O)c1c(Br)cnn1-c1ccc(C)cc1", "Potency": "inconclusive: 20.6 µM [activator, partial curve]"}, {"smiles": "Cn1nc(-c2ccc(NCCO)c([N+](=O)[O-])c2)c2ccccc2c1=O", "Potency": "inconclusive: 25.9 µM [activator, partial curve, poor fit]"}, {"smiles": "O=C(Nc1nnc(SCC(=O)N2CCCCC2)s1)c1c(F)cccc1F", "activity change, positive = activation": "inactive: 0.702%"}, {"smiles": "O=C(Nc1cc2c(cc1[N+](=O)[O-])OCCO2)c1cccnc1", "Potency": "inconclusive: 10.3 µM [activator, partial curve, poor fit]"}, {"smiles": "CCC(=O)Nc1ccccc1C(=O)OCC(=O)c1ccccc1", "Potency": "inconclusive: 10.3 µM [activator, partial curve, poor fit]"}, {"smiles": "O=C(Nc1ccon1)c1cnc2sccn2c1=O", "activity change, positive = activation": "inactive: 0.961%"}, {"smiles": "COc1ccc(Nc2oc(-c3ccc(Cl)cc3)nc2C#N)cc1", "Potency": "inconclusive: 20.6 µM [activator, partial curve, poor fit]"}, {"smiles": "Cc1ccc(NC(=O)CSc2nnc(Cc3csc(C)n3)o2)cc1", "activity change, positive = activation": "inactive: 4.97%"}, {"smiles": "Cc1ccc2c(c1)cc(CN(Cc1ccco1)C(=O)COc1ccccc1)c1nnnn12", "activity change, positive = activation": "inactive: -15.8%"}, {"smiles": "CCN(CCNC(=O)C1CCN(S(=O)(=O)c2cccc3cccnc23)CC1)c1ccccc1", "activity change, positive = activation": "inactive: -34.3%"}, {"smiles": "O=C(CSCc1c(F)cccc1Cl)NCc1ccco1", "Potency": "inconclusive: 18.4 µM [activator, partial curve, poor fit]"}, {"smiles": "c1ccc(CSCc2nc3ccccc3[nH]2)cc1", "Potency": "inconclusive: 20.6 µM [activator, partial curve, poor fit]"}, {"smiles": "CCOc1cccc2sc(N(CCN(C)C)C(=O)/C=C/c3cccs3)nc12", "activity change, positive = activation": "inactive: -10.8%"}, {"smiles": "Cc1nn(CC(=O)Nc2cccc(Cl)c2)c(=O)c2cc(-c3ccccc3)nn12", "Potency": "inconclusive: 32.6 µM [activator, partial curve, poor fit]"}, {"smiles": "Cc1cccc(C2=NN(c3ccccc3)[C@@H](C(=O)N3CCOC3=O)[C@@H]2c2ccc(Cl)cc2)c1", "activity change, positive = activation": "inactive: -1.2%"}, {"smiles": "CSc1ccc(C(=O)/C=C/c2ccc(N)cc2)cc1", "Potency": "active: 13 µM"}, {"smiles": "CC(/C=C(\\NC(=O)c1ccccc1)C(=O)N=Nc1c(O)[nH]c2ccc(C)cc12)=C\\c1ccccc1", "activity change, positive = activation": "inactive: -14.1%"}, {"smiles": "NC(=O)c1cccc(-c2noc(-c3ccccc3F)n2)c1", "Potency": "inconclusive: 4.61 µM [activator, partial curve]"}, {"smiles": "O=c1[nH]c(S)nc2sc3c(c12)CCCC3", "activity change, positive = activation": "inactive: 1.17%"}, {"smiles": "Cc1ccc2c(c1)cc1c(=O)n(CC(=O)NCc3ccccn3)nc(C)n12", "activity change, positive = activation": "inactive: 4.05%"}, {"smiles": "COc1cccc(CNC(=O)C2CCCN(c3nn4c(=O)cc(C)nc4s3)C2)c1", "note": "(stereo unspecified)", "Potency": "inconclusive: 0.0007 µM [activator]"}, {"smiles": "CC(C)(C)C(=O)O/N=C(\\N)c1ccc(-c2csnn2)cc1", "Potency": "inconclusive: 14.6 µM [activator, partial curve]"}, {"smiles": "COc1ccc(-c2cc(C(=O)Nc3nc4ccccc4s3)c3ccccc3n2)cc1OC", "activity change, positive = activation": "inactive: -3.66%"}, {"smiles": "Cc1ccnc(NC(=O)c2cccc(S(=O)(=O)N3CCN(c4ccccc4)CC3)c2)c1", "Potency": "inconclusive: 1.3 µM [activator, partial curve]"}, {"smiles": "CCOc1ccc(-c2nc(-c3ccc(OC)cc3)no2)cc1OCC", "activity change, positive = activation": "inactive: -0.909%"}, {"smiles": "CC(=O)N1CCc2cc(S(=O)(=O)NC(CC(C)C)C(=O)Nc3ccc4c(c3)OCCO4)ccc21", "note": "(stereo unspecified)", "Potency": "inconclusive: 32.6 µM [activator, partial curve, poor fit]"}, {"smiles": "CCOC(=O)c1ccc(N/C=C/C(=O)c2ccc(OC)c(OC)c2)cc1", "activity change, positive = activation": "inactive: 1.64%"}, {"smiles": "CCCCc1nc2cc(C(=O)N3CCC[C@H]3CO)ccc2o1", "Potency": "inconclusive: 16.4 µM [activator, partial curve, poor fit]"}, {"smiles": "O=C(NNC(=O)C(c1ccccc1)c1ccccc1)c1ccccn1", "Potency": "inconclusive: 29.1 µM [activator, single point]"}, {"smiles": "CNC(=S)N/N=C/c1ccc(-c2cc([N+](=O)[O-])ccc2Cl)o1", "Potency": "inconclusive: 20.6 µM [activator, single point]"}, {"smiles": "Cc1cc(C)n(-c2nncc(-c3ccccc3)n2)n1", "Potency": "inconclusive: 11.6 µM [activator, partial curve, poor fit]"}, {"smiles": "CN1CCN(c2ccc(NC(=O)COc3ccccc3Cl)cc2)CC1", "Potency": "inconclusive: 11.6 µM [activator, partial curve]"}, {"smiles": "CCC(=O)NC1(Cc2ccc(O)cc2)CCCCC1", "activity change, positive = activation": "inactive: -0.0113%"}, {"smiles": "CN(CC(=O)O/N=C(\\N)c1ccccn1)S(=O)(=O)c1ccc(Br)cc1", "activity change, positive = activation": "inactive: -3.8%"}, {"smiles": "CCN(CC)S(=O)(=O)c1ccc(-c2cn3ccc(C)cc3n2)cc1", "Potency": "inconclusive: 2.31 µM [activator, full curve, poor fit]"}, {"smiles": "CC(/C=N/NC(=O)c1n[nH]c2c1CCC2)=C\\c1ccccc1", "Potency": "active: 2.31 µM"}, {"smiles": "COc1ccc(/C=N\\Nc2ccccn2)c(OC)c1", "Potency": "inconclusive: 5.17 µM [activator, single point]"}]}]}
